Assay results: the supplement of paper PMC5919970
Counter-ions that a name gives are not always drawn. The full ranking holds about 2,000 compounds; the median of “fractional viability relative to vehicle” is about 0.92, and the lowest 2% start at about 0.11. The list shows a part of the results.

Test system: TYKNU
Assay: fractional viability relative to vehicle; TYKNU is a high-grade serous ovarian cancer line; higher = less growth inhibition
Details: 72 h, genotype: OPA1 knockout (sgOPA1 #2)
Procedure, shortened: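 TYKNU control cells or lentiCRISPRv2 knockout derivatives were seeded at 500 cells per well into drug-stamped 384-well plates holding a ~2100-compound library at 2 or 10 μM, in duplicate. Cells were grown at 37 °C in 5% CO2 in RPMI 1640 with 10% FBS, and drug treatment lasted 72 h. Viability was read by Cell Titer Glo luminescence. Duplicate treatment wells were averaged and normalised to duplicate control wells from the same plate position.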

Row | SMILES | fractional viability (2uM) | fractional viability (10uM)
1 | CC#CC(=O)Nc1ccc2ncnc(Nc3cccc(Br)c3)c2c1 | 0.562 | 0.317
2 | Nc1nc2c(ncn2COCCO)c(=O)[nH]1 [Aciclovir] | 1.09 | 1.27
3 | COc1ccc2[nH]c([S@@+]([O-])Cc3ncc(C)c(OC)c3C)nc2c1 [Esomeprazole Magnesium] | 1.32 | 1.34
4 | COc1ccc2[nH]c([S@@+]([O-])Cc3ncc(C)c(OC)c3C)nc2c1 [Esomeprazole Sodium] | 1.35 | 1.58
5 | Cc1cc(N2CCOCC2)cc2[nH]c(-c3c(NC[C@@H](O)c4cccc(Cl)c4)cc[nH]c3=O)nc12 | 0.813 | 0.447
6 | CC(C)NCC(O)c1ccc(O)c(O)c1 (stereo not drawn) [Isoprenaline HCl] | 0.972 | 0.988
7 | CS(=O)(=O)N1CCN(Cc2cc3nc(-c4cccc5[nH]ncc45)nc(N4CCOCC4)c3s2)CC1 | 0.824 | 0.658
8 | CC(=O)OCC(=O)[C@@]1(O)[C@H](C)C[C@H]2[C@@H]3CCC4=CC(=O)C=C[C@]4(C)[C@@]3(F)[C@@H](O)C[C@@]21C [Dexamethasone Acetate] | 1.2 | 1.03
9 | COc1c(N2C[C@@H]3CCCN[C@@H]3C2)c(F)cc2c(=O)c(C(=O)O)cn(C3CC3)c12 [Moxifloxacin HCl] | 0.942 | 1.64
10 | CC1(C)CCC[C@]2(C)[C@H]3CC(=O)O[C@]3(C)CC[C@@H]12 [Sclareolide] | 0.805 | 0.945
11 | COc1ccc(C(=O)CC(=O)c2ccc(C(C)(C)C)cc2)cc1 [Avobenzone] | 0.975 | 1.09
12 | CCCC1O[C@@H]2C[C@H]3[C@@H]4CCC5=CC(=O)C=C[C@]5(C)[C@H]4[C@@H](O)C[C@]3(C)[C@]2(C(=O)CO)O1 (stereo partly drawn) [Budesonide] | 1.28 | 1.2
13 | CNC(=O)[C@@H](c1ccccc1)N1CCc2cc(OC)c(OC)cc2[C@@H]1CCc1ccc(C(F)(F)F)cc1 [Almorexant HCl] | 0.995 | 0.903
14 | COc1cc(C(C)=O)ccc1OCCCN1CCC(c2noc3cc(F)ccc23)CC1 [Iloperidone] | 1.15 | 1.02
15 | COc1ccc(/C=C\c2cc(OC)c(OC)c(OC)c2)cc1O [Combretastatin A4] | 0.313 | 0.292
16 | c1cc(-c2cnn3cc(-c4ccc(N5CCNCC5)cc4)cnc23)c2cccnc2c1 | 0.104 | 0.0761
17 | NCCCC[C@@H]1NC(=O)[C@@H](Cc2ccccc2)NC(=O)[C@H](CC(=O)O)NC(=O)CNC(=O)[C@H](CCCN=C(N)N)NC1=O [Cyclo (-RGDfK)] | 0.833 | 0.865
18 | CC(C(=O)O)c1cccc(C(=O)c2ccccc2)c1 (stereo not drawn) [Ketoprofen] | 0.94 | 0.961
19 | CCCCN(Cc1ccc(C(=O)NO)cc1)C(=O)Nc1ccccc1 [Nexturastat A] | 0.793 | 0.525
20 | COC(=O)N[C@H](C(=O)N1CCC[C@H]1c1ncc(-c2ccc(-c3ccc(-c4cnc([C@@H]5CCCN5C(=O)[C@@H](NC(=O)OC)C(C)C)[nH]4)cc3)cc2)[nH]1)C(C)C | 1.14 | 0.892
21 | CC1=C(C(=O)Nc2cc3cn[nH]c3cc2F)C(c2ccc(C(F)(F)F)cc2)CC(=O)N1 (stereo not drawn) | 1.09 | 1.16
22 | CNC(=O)c1ccccc1Nc1nc(Nc2ccc(N3CCOCC3)cc2OC)ncc1Cl | 0.987 | 0.532

Row | SMILES | fractional viability (2uM) | fractional viability (10uM)
23 | CCOC(=O)c1ncn2c1CN(C)C(=O)c1cc(F)ccc1-2 [Flumazenil] | 1.08 | 1.22
24 | Cc1cc(C)c2c(c1)[C@@H](N(Cc1cc(C(F)(F)F)cc(C(F)(F)F)c1)c1nnn(C)n1)CCCN2C[C@H]1CC[C@H](C(=O)O)CC1 | 0.997 | 0.93
25 | C[C@@H]1CN(c2c(F)c(N)c3c(=O)c(C(=O)O)cn(C4CC4)c3c2F)C[C@H](C)N1 [Sparfloxacin] | 0.953 | 1.05
26 | CCNC(=O)c1noc(-c2cc(Cl)c(O)cc2O)c1-c1ccc(OC)cc1 | 0.542 | 0.368
27 | CCOC(=O)c1ccc(N2NC(=O)C(=Cc3ccc([N+](=O)[O-])o3)C2=O)cc1 | 0.854 | 1.09
28 | CCn1cc(C(=O)O)c(=O)c2cc(F)c(N3CCN(C)CC3)cc21 [Pefloxacin Mesylate Dihydrate] | 0.965 | 1.13
29 | CCn1cc(C(=O)O)c(=O)c2cc(F)c(N3CCN(C)CC3)cc21 [Pefloxacin Mesylate] | 1 | 1.02
30 | C=CC(=O)Nc1cccc(Nc2nc(Nc3ccc(NC4CN(CCF)C4)cc3OC)ncc2C(F)(F)F)c1 | 0.897 | 0.432
31 | CS(=O)(=O)Nc1ccc([N+](=O)[O-])cc1Oc1ccccc1 [Nimesulide] | 1 | 0.937
32 | CNC(=C[N+](=O)[O-])NCCSCc1csc(CN(C)C)n1 [Nizatidine] | 1 | 1.08
33 | CCC1=C[C@@H]2CN(C1)Cc1c([nH]c3ccccc13)[C@@](C(=O)OC)(c1cc3c(cc1OC)N(C)[C@H]1[C@@](O)(C(=O)OC)[C@H](OC(C)=O)[C@]4(CC)C=CCN5CC[C@]31[C@@H]54)C2 [Vinorelbine Tartrate] | 0.363 | 0.303
34 | CC(C)CN(C[C@@H](O)[C@H](Cc1ccccc1)NC(=O)O[C@H]1CCOC1)S(=O)(=O)c1ccc(N)cc1 [Amprenavir] | 1.05 | 0.901
35 | CCOC(=O)CCC(=O)O[C@H]1[C@H](O[C@@H]2[C@@H](C)[C@H](O[C@H]3C[C@@](C)(OC)[C@@H](O)[C@H](C)O3)[C@@H](C)C(=O)O[C@H](CC)[C@@](C)(O)[C@H](O)[C@@H](C)C(=O)[C@H](C)C[C@@]2(C)O)O[C@H](C)C[C@@H]1N(C)C [Erythromycin Ethylsuccinate] | 0.98 | 0.773
36 | COc1cc(NC(=O)c2ccc(-c3ccc(Cl)cc3)o2)cc(OC)c1 | 1.21 | 1.32
37 | C[C@]12C=CC(=O)C=C1CC[C@@H]1[C@@H]2C(=O)C[C@@]2(C)[C@H]1CC[C@]2(O)C(=O)CO [Prednisone] | 1.09 | 1.09
38 | c1ccc2c(Oc3nc(Nc4ccc(N5CCOCC5)cc4)c4ncn(C5CCCCC5)c4n3)cccc2c1 [Purmorphamine] | 1.04 | 1.11
39 | C=C1/C(=C\C=C2/CCC[C@]3(C)[C@@H]([C@H](C)CCCC(C)(C)O)CC[C@@H]23)C[C@@H](O)C[C@@H]1O [Calcitriol] | 0.965 | 0.937
40 | CCC[C@H](NC(=O)/C(C#N)=C/c1cccc(Br)n1)c1ccccc1 [Degrasyn (WP1130)] | 0.343 | 0.0765
41 | CCOC(=O)NCCCC(=O)NCCc1ccccc1 | 0.877 | 0.962
42 | OC[C@H]1O[C@@H](OCCc2ccc(O)cc2)[C@H](O)[C@@H](O)[C@@H]1O [Salidroside] | 0.744 | 0.849
43 | COC(=O)c1ccc2c(c1)[nH]c1ncnc(NCCCN3CCCCC3)c12 | 0.785 | 0.985
44 | C[C@H]1[C@H](NC(=O)/C(=N\OC(C)(C)C(=O)O)c2csc(N)n2)C(=O)N1S(=O)(=O)O [Aztreonam] | 1.07 | 0.683

Row | SMILES | fractional viability (2uM) | fractional viability (10uM)
45 | CCc1c2c(nc3ccc(OC(=O)N4CCC(N5CCCCC5)CC4)cc13)-c1cc3c(c(=O)n1C2)COC(=O)[C@]3(O)CC [Irinotecan HCl Trihydrate] | 0.901 | 0.462
46 | CCc1c2c(nc3ccc(OC(=O)N4CCC(N5CCCCC5)CC4)cc13)-c1cc3c(c(=O)n1C2)COC(=O)[C@]3(O)CC [Irinotecan] | 1.04 | 0.597
47 | CCc1cc(C(N)=S)ccn1 [Ethionamide] | 1.12 | 1.05
48 | OCc1ccc(O[C@@H]2O[C@H](CO)[C@@H](O)[C@H](O)[C@H]2O)cc1 [Gastrodin] | 1.12 | 1.01
49 | O=C(NC(NC(=S)Nc1ccc(F)c([N+](=O)[O-])c1)C(Cl)(Cl)Cl)C(c1ccccc1)c1ccccc1 (stereo not drawn) | 0.908 | 0.406
50 | Cn1cc(C2=C(c3ccc(Cl)cc3Cl)C(=O)NC2=O)c2ccccc21 | 1.01 | 0.935
51 | O=C(N/N=C/c1ccc([N+](=O)[O-])o1)c1ccc(O)cc1 [Nifuroxazide] | 1.36 | 0.246
52 | Cc1cc(NC(=O)c2cccc(NC(=O)/C=C/CN(C)C)c2)ccc1Nc1nccc(-c2cccnc2)n1 | 1.16 | 0.489
53 | Cc1cccc(Nc2cc(Cl)nc(SCC(=O)O)n2)c1C | 0.793 | 0.725
54 | Cc1cn([C@@H]2C[C@@H](O)[C@H](CO)O2)c(=O)[nH]c1=O [Telbivudine] | 1.07 | 0.976
55 | FC(F)(F)c1ccc(/C=C/c2nc(COc3ccc(CCCCn4ccnn4)cc3)co2)cc1 [Mubritinib (TAK 165)] | 0.728 | 0.742
56 | O=C1c2c(O)cc(O)cc2OC(c2ccc(O)c(O)c2)C1O (stereo not drawn) [Taxifolin (Dihydroquercetin)] | 0.797 | 0.944
57 | CN(C)CCCOc1nn(Cc2ccccc2)c2ccccc12 [Benzydamine HCl] | 0.962 | 0.918
58 | CC(C)(C)c1cc(C(=O)C(C#N)=NNc2cccc(Cl)c2)no1 | 0.706 | 0.572
59 | CNS(=O)(=O)Nc1nccc(Cc2c(C)c3ccc(Oc4ncccn4)cc3oc2=O)c1F | 0.508 | 0.376
60 | OC[C@@H](O)[C@@H](O)[C@H](O)[C@@H](O)CO [Sorbitol] | 1.03 | 0.961
61 | CC(=O)OCC(=O)[C@@]1(O)CC[C@H]2[C@@H]3CCC4=CC(=O)CC[C@]4(C)[C@H]3C(=O)C[C@@]21C [Cortisone acetate] | 0.944 | 0.931
62 | COc1cc2nc(N3CCN(C(=O)C4CCCO4)CC3)nc(N)c2cc1OC (stereo not drawn) [Terazosin HCl] | 1.14 | 1.15
63 | CN1CCN(c2cccc(Nc3nc4c(-c5ccc(S(C)(=O)=O)cc5)cccn4n3)c2)CC1 | 0.974 | 0.73
64 | CN[C@@H](C)C(=O)N[C@H](C(=O)N1CCC[C@H]1C(=O)Nc1snnc1-c1ccccc1)C1CCCCC1 | 0.918 | 0.747
